# Values joined by “and” are separate entries in the source; they are usually repeats but may differ in a detail not shown here. Equal entries are not always repeated. The campaign covered roughly 150,000 compounds. About 540 (0.36%) showed an effect of 50% or more. The list shows a part of the results.
# Tested on: Plasmodium falciparum
# Experiment: Primary screen in NF54 nanoGlo assay, in single point, at 2uM, 72h; a lower Z score goes with more inhibition
# Type: functional, Erythrocyte
# Conditions: timepoint 72 hour
Compound,% Inhibition,Z score,% Inhibition (2 µM)
N#Cc1ccc(N2CC3CC4CC3C2C4O)nc1 (stereo not given),5%,-0.82,
Cc1c(C)[n+]([O-])c([C@@H](c2ccc3nccnc3c2)C2C(=O)OC(C)(C)OC2=O)n1C,-8%,0.95,
COc1ccc(-c2n[nH]c(=O)c3c2CCCC3)cc1S(=O)(=O)Nc1cc(C)ccc1C,-22%,3.01,
c1ccc2cc(Cn3c(Cc4cccc5ccccc45)nc4ccccc43)ccc2c1,-9%,1.48,
COc1cc(CNCc2cccs2)ccc1OCc1ccc(C)cc1,-5%,0.63,
O=C(c1cccc(Cl)c1)N1CCC[C@H]1c1nc(-c2ccccc2)no1,-13%,1.52,
Cc1cc(Cl)cc(CN[C@H]2CCO[C@@H]2c2cccnc2)c1,0%,0.08,
CN1CCOC[C@@H](CNc2cccc(C#N)n2)C1,2%,-0.27,
Cc1ccc([C@@H]2CCCN2Cc2nc3c(=O)n(C)c(=O)n(C)c3[nH]2)o1,1%,-0.11,
COC(=O)N[C@@H](C)C(=O)NCc1cccc2[nH]ccc12,-18%,1.94,
COc1ccccc1C(=O)N1CCOCC2(CCCC2)C1,-14%,2.14,
O=C(CCCn1nc(-c2ccccc2)c2cc(Cl)ccc21)NCCCN1CCCC1,3%,-0.56,
COc1c(F)c(F)cc(C(=O)NCc2cncc(N3CCCC3=O)c2)c1F,-2%,0.33,
CN(c1ccc(C#N)nn1)C1CCCC1C(C)(C)C (stereo not given),-9%,1.26,
CC(C)S(=O)(=O)CC(=O)N1CCCCC[C@H]1c1noc(-c2ccccc2)n1,-7%,0.88,
C[C@@H](C(=O)N1CCCN(c2cc(-c3ccc(Cl)cc3)n[nH]2)CC1)c1ccccc1,-16%,1.63,
CNC(=O)c1cccc(C(=O)O[C@@H]2CCC[C@H]2n2cccn2)c1,-8%,1.02,
COc1ccc(S(=O)(=O)Nc2c(C)[nH]c(=O)[nH]c2=O)cc1OC,,,1% and -15%
CS(=O)(=O)N1CC2CC=CCC2C1 (stereo not given),9%,-1.01,
CC(C)n1ncnc1CN[C@@H](C)c1ccc(-c2cccc(C#N)c2)cc1,-9%,1.16,
OCC(CO)[C@H]1CCN(c2nccc(C(F)(F)F)n2)C1,-2%,0.48,
COc1ccc(C(=O)N2CC[C@H](Oc3ccc4ccccc4n3)C2)c(OC)c1,-3%,0.48,
COC(=O)C[C@]1(C(=O)OC)N[C@@H](c2cccc(C)n2)[C@H]2C(=O)N(C)C(=O)[C@H]21,-11%,1.58,

# — ChEMBL document CHEMBL4888484, “Replenishing the malaria drug discovery pipeline: Screening and hit evaluation of the MMV Hit Generation Library 1 (HGL1) against asexual blood stage Plasmodium falciparum ,using a nano luciferase reporter read-out” (2022)
